± gives the standard deviation of the averaged measurements. Whole data set: some 4,000 sequences, median “arbitrary fluorescence units” near 830, cut for the highest 2% near 6,500. The list lacks most of the strong results.
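Also: Full-length recombinant human RUNX1 bound to double-stranded DNA microarray spots, detected with an Alexa488-labelled secondary antibody after the anti-RUNX1 primary, read as scanned spot fluorescence.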

Chain of UniProt Q01196 (Q01196 whole entry): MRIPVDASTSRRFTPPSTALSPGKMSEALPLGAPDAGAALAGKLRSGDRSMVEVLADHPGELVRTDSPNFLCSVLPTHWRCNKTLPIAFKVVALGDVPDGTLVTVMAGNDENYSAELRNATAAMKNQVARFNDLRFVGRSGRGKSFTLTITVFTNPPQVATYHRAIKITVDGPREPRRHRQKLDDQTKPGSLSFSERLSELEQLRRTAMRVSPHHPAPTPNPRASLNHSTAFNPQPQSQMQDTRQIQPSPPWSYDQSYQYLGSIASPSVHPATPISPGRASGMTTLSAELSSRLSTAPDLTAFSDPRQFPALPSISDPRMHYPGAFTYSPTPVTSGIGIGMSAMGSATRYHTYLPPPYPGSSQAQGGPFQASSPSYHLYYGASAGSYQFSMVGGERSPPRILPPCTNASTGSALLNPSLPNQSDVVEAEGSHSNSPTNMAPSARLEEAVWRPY

The target in this assay is RUNX1 (UniProt Q01196). Nature of the assay: RUNX1 binding intensity (PBM fluorescence), RUNX1 alone (arbitrary fluorescence units); higher = stronger binding. The conditions noted are these: RUNX1 concentration 2 nM; ETS1 concentration 0 nM. The procedure:
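gcPBM on 36-bp genomic-derived probes (partner site mutated) containing one RUNX1 site and no ETS1 site. Recombinant human RUNX1 (2 nM) was incubated alone or with ETS1 (25 nM) and detected by anti-RUNX1 antibody fluorescence. Values are medians over 4 replicate spots (not normalised). The probes sit in constant array flanks that are not printed.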
Sequence TCGGGGAAAGACCGCTTCAGGTGCTCCCGTCGCTCC gave an RUNX1 binding intensity of 782. With GGTGAGCGGTGGTGGTTTATTCTTCTGTGGAGTTAA the figure was 1220; with ACACCTCAGCAAGTGGCAGAGACCACAACAAGTCAG, 952. The sequence CTGCAACCTCAAACCAGCTCCCAGGGCCAGCAAGGT had an RUNX1 binding intensity of 900.

In the case of ACAAAACAAACACCTCCCCCAAACCGCCAAACTACA, the RUNX1 binding intensity stood at 1400.

Sequence CCGCCCGCAGGGGCTGCCGGAGGCTTTTACTGTTCC gave an RUNX1 binding intensity of 812.

Regarding ACTGCCGCAGCCCAGGGGCCCGAGAAGGCAATCGCT, the RUNX1 binding intensity came out at 835.

GCGCCGCCCACAGCCGATCGACATGTCCCAGAATCA had an RUNX1 binding intensity of 768. With GCGCCCCGTCCTTGCGCAGCCCAACCGCCTCTTCCC the figure was 1190; with TGTCAGTCTGTGGTTGGGCAGGCAGTGGCTGGGCAG, 1050; with CAAAACCACTTGGCAGCTGAGTCAACACCCTGCCTG, 743. With TCGGCTCGCGGTGGGAGCGCCTGAAGCCCGCCCCAC, the RUNX1 binding intensity came out at 784. For the sequence CGAACTACGTCCTCTGAGGTGTGGCTTTTTGGCCTG, the RUNX1 binding intensity was 777. With CTGGGCCTCCTCTTCAGGCATGCGCGGTGGACCTGC the figure was 662; with CTGACAGCCTCCGCACAAAGCGCGGTCTATTTCTCC, 918; with AGCGTACGGTCGCGCCGCGCTCTAGCACCGCAGCAC, 798. Sequence GCCCCGGTGGTTTTGAACTCCCGCCAACCTCCCTTT registered an RUNX1 binding intensity of 1170. In turn, CGAGGTGACCACTCTCCTCGGCAGCCGCACCTGCCC yielded an RUNX1 binding intensity of 974. For ACCACCCCCCGTCTCCTCCGAAGTGGTTGGTGCCTT, the RUNX1 binding intensity amounted to 921.

In the case of GCAAGATCCCGCATTAACATCTCGGGAACGGACAGC, the RUNX1 binding intensity was 939. TAGGCTGAAAGCCCGCTAGCCTAAACCACAGAGGGT: the RUNX1 binding intensity was 798. In the case of GTCCTTTCTGTGTGTTACTCTTAAAAACCACAGAGG, the RUNX1 binding intensity amounted to 1310.

In turn, TGGATGGCGGCGGAGACTGCCCATGCCGCAAGGCCG came in with an RUNX1 binding intensity of 658.

With GTCGGGAGGTAGGCGGGGTGACGTGTGGTTGACGAG, the RUNX1 binding intensity came to 1020.

On to TCCTGTTTACCACCCAGCCTCTTGCTCCCGTGCCCA, for which the RUNX1 binding intensity was 1410.

For TCCAGCCCCACCGTAAGTGGATGTGGTTAATCTAGT, the RUNX1 binding intensity came to 866. With GGGCCTAAGCCTGTGGTTAGACTTCATGTCAATGAG the figure was 1190; with GTAACTGAAACCACAGCAAGCGGCACTGTAGGTAAG, 1250; with TTGTTCGCTGCGGCGACCAGCTCCGAAAAGCGCGGC, 736. With GCCACAGCCTGAAGCAGGCTGACCACAAGTGCTAAG the figure was 993; with GAAGAGAAAGGCAACGGCTCGCGGTTTCTGGGGTTC, 1050. With AGGGAACAGCAAATGCAAAAAACCACAAGGGACAAG the figure was 1520. On to GCGATCGGAGCGGCAGTGGAGCTACCGCCACCGCCG, for which the RUNX1 binding intensity turned out to be 838. With CTAGTTTCATGTGGCTGCTATGACAAATGACCACAG the figure was 766. With ATGCTCGCAGTAAACCACAGTCATCCAGTTTCTTTA the figure was 1240; with TGGAAGCTGCGGCCGCCTCGCACCCTGAACAACAAA, 797.

GCCTTGCGCCGTCTGCTAGGCGTGTCGCCGCAGGAG displayed an RUNX1 binding intensity of 720.

The sequence CCCCCACACCCTGTTTGGTTTGTGGGACACCTCAAC had an RUNX1 binding intensity of 895. With TTACAATCATGTCCTCTCTGTGGTTTGGTGACAAAT the figure was 1440. Consider CTGTGGTCATTTGTCATAGCAGCCACATGAAACTAG, for which the RUNX1 binding intensity worked out at 780.

Consider AGCGCTTGCTGGCTCCGGCCCCGCCCCTGCGGTCGG, for which the RUNX1 binding intensity was determined as 790. For TGGGTGCTGCGGGCCAAGCTTTCCCTTCGTTTGAGA, the RUNX1 binding intensity is 722. With GGCCAGGCGCTGCGGGCAGTCATTGCCTTAGCAACT the figure was 687; with TGCCACCTCCGCCATCTTGAAACAACCGCCACTCGG, 1120 ± 28. With CCTCTGCCAAAACCACCATCCACTTGCCCACCCAAC the figure was 3380; with TACTTAGAGGCAATGTGGCCTGTGGTCTTGTCTCAC, 761; with AAAAAATGGAGGACGTTACCTCCAGTGGTTTTGTGA, 766. With GCAGTCAGGCCCACATTCCTCTTACCTCCCGCCATT the figure was 1270. In turn, CATGACCTCCTCGCACAAGAATGCGGGGGTGGGGGT registered an RUNX1 binding intensity of 1050.

Regarding GCCGCCGCAGATTCGACACAAAACCCTGAAGGACCC, the RUNX1 binding intensity came out at 962. CGGAGGCGCGGTTTCCAAGCACGGCAACCTTCAGCC showed an RUNX1 binding intensity of 884. With GGGTGCTGCCTATAAACAATGACTCATTACCGCACT the figure was 839; with CGTCCTGTGCTGCGGGCTCAGGCGCAACCCTGAACG, 815; with ACGGAGCTGTGGTTTAACGTTTCAGGTTAGTGGCTA, 1330.

As to AGGGAAACCACGGAATTTACTGCCGAAAGTTCGGCG, the RUNX1 binding intensity is 825. In the case of GCTTTGCAGTGTCCTCTGTGGAACACCACACACAGT, the RUNX1 binding intensity is 803. With AACCCGAAACCCCACAGACCAGCCGGGAGTCCGGTC the figure was 820; with GTCCCCTGGAACCGTCTCCTCCCCCGCACGCGCCGC, 911. With AACTGGATTGACCACATGGAGGAGATGGGAGGAGGC the figure was 985. With GAGCACATTGCCTTTTGCTTCCAGATACCACAGTGA the figure was 945; with ACAGACAGCAGCCTGAGCTCGTGGTTAGAACACCCT, 796; with GACAAAGCAACCGCCAGGCAGATCCCGGGAGCCGCC, 751.

Source of the values: the supplement of paper PMC10681739.
